Hit rate of the full screen: of about 410,000 compounds, about 7,200 (1.8%) were called active. This list was built around the results that the source calls inconclusive (neither active nor inactive); the mix of calls is not that of the screen. The call rests on the fitted dose curve; in most records, active means well fitted activation curve with a large enough effect; inconclusive means small, poorly fitted or top-dose-only effect, or another doubt; inactive means no such curve, though single readings can be large or run the other way. No potency is given beside an inconclusive call; the fits are too rough.
Assay: qHTS of TDP-43 Inhibitors; further: nearly all actives have a fitted effect of over 50% in size; on growth rescue (activation): % of control where 0% means no effect
Conditions: TDP-43 expressing yeast growth rescue, BacTiter-Glo, 24 h; growth rescue (activation): at 46.1 µM (top of the series) unless noted
Outline: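 Yeast expressing TDP-43 (pregrown in raffinose, seeded at OD600=0.02 in galactose medium) exposed to compounds 24 hr at 30 deg C. Growth read by BacTiter-Glo luminescence; rescue of toxicity appears as increased signal.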
In the case of `CC(C)OC(=O)c1cn(-c2ccccc2)nc1-c1ccco1`, the Potency is reported as inconclusive [activator, full curve, poor fit].
In the case of `O=C(OCc1csc(-c2ccccc2)n1)c1cccs1`, the Potency is reported as inconclusive [activator, partial curve].
For `Cc1[nH]n(-c2ncc(-c3ccccc3)s2)c(=O)c1C(c1ccc(Cl)cc1)C(C#N)C#N` (stereo not drawn), the Potency was inconclusive [activator, partial curve, poor fit].
In the case of `COc1ccc(/C=C(\C#N)C(=O)Nc2cc(S(=O)(=O)N3CCCCC3)ccc2N2CCCCC2)cc1`, the Potency is reported as inconclusive [activator, full curve].
For `CC(=O)Nc1ccc(NC(=O)C2CCCN2S(=O)(=O)c2ccc3c(c2)CCCC(=O)N3)cc1` (stereo not drawn), the “growth rescue (activation)” value was inactive: 11.8%.
In the case of `CCSc1nnc2ccc(-c3ccc(C)cc3)nn12`, the Potency is reported as inconclusive [activator, partial curve].
In the case of `CCOC(=O)c1cnn(-c2nc(SC)nc3sc4c(c23)CCCC4)c1N`, the Potency is reported as inconclusive [activator, single point].
In the case of `CCOc1ccccc1OC(C)C(=O)Nc1ccc(S(=O)(=O)N2CCCC2)cc1` (stereo not drawn), the Potency is reported as inconclusive [activator, partial curve].
With `Cc1cccc(NC(=O)c2cc(-c3ccc(C)s3)nc3ccccc23)n1` the Potency was inconclusive [activator, partial curve].
For `CCCC(=O)Nc1ccc(Cl)c(NC(=O)c2cccc(OC)c2)c1`, the Potency was inconclusive [activator, partial curve].
For `Nc1cccc(C(=O)Nc2ccccc2Cl)c1`, the “growth rescue (activation)” value was inactive: 20.2%.
For `O=C(CC1CC2CCC1C2)N1CCN(S(=O)(=O)c2ccccc2F)CC1` (stereo not drawn), the Potency was inconclusive [activator, single point].
In the case of `COc1cccc(-c2nn(-c3ccc(C)cc3)cc2C(=O)N(C)CC(=O)Nc2cccc(F)c2)c1`, the Potency is reported as active: 22.4 µM.
With `Cn1c(N=NC(=O)c2ccccc2)c(O)c2ccccc21` the Potency was inconclusive [activator, partial curve].
In the case of `COc1cc(/C=C2\SC(=S)N(N3CCOCC3)C2=O)cc(OC)c1OC`, the Potency is reported as inconclusive [activator, full curve].
In the case of `COc1ccccc1Cc1c(-c2cccc(Cl)c2)nc2ccc(Cl)cn12`, the Potency is reported as inconclusive [activator, single point].
In the case of `CCOC(=O)CCc1c(C)c2ccc(O)cc2oc1=O`, the “growth rescue (activation)” value is reported as inactive: 21.3%.
With `Cc1cc(Cl)ccc1NNC(=O)c1snnc1C` the Potency was inconclusive [activator, partial curve].
In the case of `CCN(c1ccccc1)c1cc2ccccc2c(=O)[nH]1`, the Potency is reported as inconclusive [activator, single point].
In the case of `N/C(=N\OC(=O)Cc1ccccc1)c1ccc([N+](=O)[O-])cc1`, the Potency is reported as inconclusive [activator, full curve].
With `C=CCNC(=S)N/N=C/c1ccc(C)cc1C` the Potency was inconclusive [activator, single point].
In the case of `Nc1nonc1C(=O)N/N=C/c1cc(Br)ccc1O`, the Potency is reported as active: 2.82 µM.
For `Cc1ccc(C(=O)O/N=C(\N)c2ccc(Br)cc2)cc1C`, the Potency was inconclusive [activator, full curve].
With `CCCOc1ccc(/C=C/C(=O)N2CCOCC2)cc1` the Potency was inconclusive [activator, partial curve].
In the case of `COc1ccc(CCNC(=S)NCc2cccs2)cc1OC`, the Potency is reported as inconclusive [activator, partial curve, poor fit].
In the case of `CCN(CC)CCNC(=O)c1ccc2c(c1)NC(=O)C(CS(=O)(=O)Cc1cccc(Br)c1)N2` (stereo not drawn), the “growth rescue (activation)” value is reported as inactive: -11.7%.
With `c1ccc(Nc2nnc(-c3cccnc3)s2)cc1` the Potency was inconclusive [activator, full curve, poor fit].
In the case of `O/N=C\c1cnc(N2CCN(c3ccccc3)CC2)s1`, the Potency is reported as inconclusive [activator, partial curve].
In the case of `O=Nc1ccc(NO)c2ccccc12`, the Potency is reported as inconclusive [activator, single point].
In the case of `COc1ccc(C(=O)O/N=C(\N)Cc2ccc(Cl)cc2Cl)cc1OC`, the growth rescue (activation) is reported as inconclusive: -93.2% [activator].
In the case of `CCc1ccc(CN2CCC(Oc3ccc(C(=O)N4CCCCC4)cc3)CC2)cc1`, the Potency is reported as inconclusive [activator, partial curve].
For `c1ccc(-c2nnc(CN3CCN(c4ccccn4)CC3)o2)cc1`, the Potency was inconclusive [activator, partial curve].
With `CCc1cccc(NC(=O)CCCCCC2NC(=O)NC2C)c1` (stereo not drawn) the “growth rescue (activation)” value was inactive: 7.83%.
For `CCn1nc(C)c2c(-c3ccccc3)cc(=O)n(C(C)C(=O)NCc3cccc(OC)c3)c21` (stereo not drawn), the Potency was inconclusive [activator, single point].
For `CCCNc1nc2c(c(=O)n(C)c(=O)n2C)n1Cc1ccc(F)cc1`, the Potency was inconclusive [activator, partial curve].
In the case of `CCOc1cccc(CC(=O)N2CCc3c([nH]c4ccccc34)C2c2ccccc2)c1OCC` (stereo not drawn), the Potency is reported as inconclusive [activator, partial curve].
In the case of `CCN(CC)c1ccc(CN(C(=O)Cc2coc3ccc(C)cc23)C2CCS(=O)(=O)C2)cc1` (stereo not drawn), the “growth rescue (activation)” value is reported as inactive: -9.32%.
With `O=c1c2c(-c3cccs3)csc2ncn1-c1ccccc1` the Potency was inconclusive [activator, single point].
With `COc1cc(-c2nnc(SCc3c(F)cccc3Cl)o2)cc(OC)c1OC` the Potency was inconclusive [activator, single point].
For `Cn1c(=O)c(-c2cccc(Cl)c2)c(O)c2ccccc21`, the Potency was active: 11.2 µM.
For `O=C(Nc1ccccc1N1CCOCC1)C1CCCCN1S(=O)(=O)c1ccccc1` (stereo not drawn), the Potency was inconclusive [activator, single point].
With `COc1cc(NC(=O)COCc2cc(-c3ccc(F)cc3)on2)cc(OC)c1OC` the Potency was inconclusive [activator, single point].
For `CCn1c(CNc2ccccc2Cl)nnc1SCC(=O)OC1CCCCC1`, the Potency was inconclusive [activator, single point].
With `c1ccc(Oc2cnc3ccccc3n2)cc1` the Potency was inconclusive [activator, single point].
For `COCc1cccc(-c2csc(C(O)c3ccc(F)cc3)n2)c1` (stereo not drawn), the Potency was inconclusive [activator, single point].
With `Fc1ccc(CSc2nnc(-c3ccncc3)o2)cc1` the Potency was active: 12.6 µM.
In the case of `Cc1ccc(N2C(=O)[C@@H]3CSC(c4ccc(F)cc4)N3C2=O)cc1` (stereo partly drawn), the Potency is reported as inconclusive [activator, partial curve].
For `CCOc1ccccc1C(=O)Nc1nc2c(s1)CC(C)CC2` (stereo not drawn), the Potency was inconclusive [activator, single point].
With `CCC(=O)Nc1c(C(=O)N2CCN(c3ccccn3)CC2)cnn1-c1ccc(C)cc1` the “growth rescue (activation)” value was inactive: 18.3%.
With `CCCOc1ccc(C(=O)c2nc3c(n2O)CCCCC3)cc1` the Potency was inconclusive [activator, full curve, poor fit].
With `COc1cccc(NC(=O)C(Cc2ccccc2)n2cccc2)c1` (stereo not drawn) the Potency was active: 12.6 µM.
For `Cc1ccc(C(C[N+](=O)[O-])c2c(N)n(C)c(=O)n(C)c2=O)cc1` (stereo not drawn), the growth rescue (activation) was inconclusive: -84.1% [activator].
With `COc1cc(CNc2ncnc3c2ncn3[C@H]2CN(Cc3cccc(C(F)(F)F)c3)C[C@@H](CO)O2)cc(OC)c1OC` the “growth rescue (activation)” value was inactive: 7.07%.
For `CC(C)Oc1ccc(C(=O)OCC(=O)c2ccc[nH]2)cc1`, the Potency was inconclusive [activator, single point].
With `O=C(/C=C/c1ccc(-c2ccccc2[N+](=O)[O-])o1)c1ccccc1` the Potency was inconclusive [activator, partial curve].
With `COc1ccc(S(=O)(=O)NC2CCCC2)c(Cl)c1Cl` the Potency was inconclusive [activator, single point].
With `O=C(Nc1ccc(OCc2cc(=O)n3c4c(sc3n2)CCCC4)cc1)c1ccccc1` the Potency was inconclusive [activator, full curve, poor fit].
In the case of `COc1ccc(N2CC(NC(=O)c3ccc4c(c3)OCO4)CC2=O)cc1` (stereo not drawn), the “growth rescue (activation)” value is reported as inactive: -8.65%.
For `CC(C)Nc1ncnc2c1cnn2-c1ccc(Cl)cc1`, the Potency was inconclusive [activator, full curve, poor fit].
For `COc1ccccc1N1CCN(c2nc(-c3ccc(C)cc3)nc3ccccc23)CC1`, the Potency was inconclusive [activator, single point].
In the case of `Cn1cc(C(=O)N2CCN(c3cccc(C(F)(F)F)c3)CC2)c2c3ccccc3n(C)c2c1=O`, the Potency is reported as active: 28.2 µM.
In the case of `CCCCC(=O)NC(c1ccc(C(C)C)cc1)c1ccc2cccnc2c1O` (stereo not drawn), the Potency is reported as inconclusive [activator, single point].
For `CC1CCCCC1NC(=O)COc1ccc(-n2cnnn2)cc1` (stereo not drawn), the Potency was inconclusive [activator, partial curve, poor fit].
With `CC(C)c1ccc(OCC(=O)NCc2ccccc2)cc1` the Potency was inconclusive [activator, partial curve].
In the case of `COc1ccccc1[C@H]1C(c2ccc(F)cc2)=NN(c2ccccc2)[C@@H]1CO`, the Potency is reported as active: 28.2 µM.
With `CCCOc1c(Cl)cc(C(=O)N(Cc2cccc(OC)c2)C2CCS(=O)(=O)C2)cc1Cl` (stereo not drawn) the Potency was inconclusive [activator, partial curve].
For `Cc1[nH]n(-c2ccccc2)c(=O)c1N=O`, the Potency was inconclusive [activator, partial curve].
With `N#C/C(=C\c1ccc[nH]1)Sc1nc2ccccc2s1` the Potency was active: 22.4 µM.

From PubChem BioAssay AID652104 (National Center for Advancing Translational Sciences (NCATS), 2013)
Potency means the concentration at half of the fitted maximal effect; tags describe the fitted curve by direction and shape.
